Screen size: about 310,000 compounds; about 14,000 (4.5%) showed an effect of 50% or more. The effect is printed as a negative number. Some of the results follow.
These molecules were tested against human ether-à-go-go-related gene (hERG) potassium channel (human, UniProt Q12809) (assay: primary screen, population patch clamp on CHO cells stably expressing hERG).
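Note: peak tail current of the secondary pulse compared with the same well before compound.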

Sequence of human ether-à-go-go-related gene (hERG) potassium channel (Q12809 whole entry, looked up): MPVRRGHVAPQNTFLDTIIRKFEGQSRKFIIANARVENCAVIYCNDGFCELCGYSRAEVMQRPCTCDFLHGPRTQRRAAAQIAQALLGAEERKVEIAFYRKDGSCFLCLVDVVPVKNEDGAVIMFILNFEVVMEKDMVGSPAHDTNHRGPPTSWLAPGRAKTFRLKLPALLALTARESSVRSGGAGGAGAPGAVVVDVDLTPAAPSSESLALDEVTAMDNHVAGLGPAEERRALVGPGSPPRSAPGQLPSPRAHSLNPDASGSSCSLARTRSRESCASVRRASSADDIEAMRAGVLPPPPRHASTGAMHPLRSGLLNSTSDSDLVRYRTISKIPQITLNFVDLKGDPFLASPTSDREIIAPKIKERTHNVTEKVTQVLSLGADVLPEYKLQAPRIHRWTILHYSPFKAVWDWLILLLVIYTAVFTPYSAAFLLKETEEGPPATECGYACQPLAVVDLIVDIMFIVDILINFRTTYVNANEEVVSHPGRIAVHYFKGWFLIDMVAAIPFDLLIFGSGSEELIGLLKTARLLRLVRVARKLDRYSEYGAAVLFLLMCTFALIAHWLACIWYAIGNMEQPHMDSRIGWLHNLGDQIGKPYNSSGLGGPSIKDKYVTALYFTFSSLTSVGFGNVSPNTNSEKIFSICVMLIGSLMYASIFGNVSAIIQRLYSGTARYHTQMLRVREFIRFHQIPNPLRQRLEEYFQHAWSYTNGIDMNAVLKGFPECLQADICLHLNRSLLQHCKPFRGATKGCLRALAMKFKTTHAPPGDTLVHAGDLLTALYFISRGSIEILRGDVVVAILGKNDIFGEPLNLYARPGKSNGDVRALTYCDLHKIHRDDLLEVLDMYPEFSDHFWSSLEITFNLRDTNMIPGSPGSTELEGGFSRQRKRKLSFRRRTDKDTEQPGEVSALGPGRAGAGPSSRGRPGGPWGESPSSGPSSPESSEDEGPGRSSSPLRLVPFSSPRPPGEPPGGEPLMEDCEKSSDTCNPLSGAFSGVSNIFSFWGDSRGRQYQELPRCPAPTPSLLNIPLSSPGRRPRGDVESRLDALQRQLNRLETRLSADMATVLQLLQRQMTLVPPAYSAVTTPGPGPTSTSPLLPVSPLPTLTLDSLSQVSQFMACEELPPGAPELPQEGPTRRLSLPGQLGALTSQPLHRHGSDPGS

Row | SMILES | hERG current change (%, negative = inhibition) at 10uM
1 | COCCNc1nc2c(c(=O)[nH]c(=O)n2C)n1CCCc1ccccc1 | -1.45%
2 | COc1ccc(/C=N/NC(=O)c2ccco2)cc1Cn1nc(C)cc1C | -2.47%
3 | O=C(NCCCn1ccnc1)c1cccnc1 | -0.137%
4 | Cc1cc(C)nc(SCc2ccc(C(=O)N/N=C/c3cccnc3)cc2)n1 | -17.3%
5 | CC(C)(C(=O)O)n1cncn1.Cl | 55.8%
6 | COc1cc(C(=S)N2CCCC2)ccc1OCc1ccc(C)cc1 | 14%
7 | CN(c1ccccc1)S(=O)(=O)c1cccc(NC(=O)CSc2ncn[nH]2)c1 | -36.1%
8 | O=C(C[n+]1ccccn1)c1ccccc1.[Br-] | 31.5%
9 | C=CCOc1ccc(C2/C(=C(\O)c3ccc4c(c3)OCCO4)C(=O)C(=O)N2CCCN2CCOCC2)cc1 (stereo not drawn) | 17.5%
10 | CC(C)(C)N(C=C(Cl)Cl)C(=O)NC1CCCCC1 | 4.83%
11 | CCOc1ccc(N2CC(C(=O)N3CC(C)OC(C)C3)CC2=O)cc1 (stereo not drawn) | 20%
12 | C#CCOCCOCCOCCNc1nc(N2CCN(C(=O)[C@H](CCC(=O)O)n3cc(C(N)Cc4ccc(O)cc4)nn3)CC2)nc(N2CCN(C(=O)[C@H](CCC(=O)O)n3cc(C(N)Cc4ccc(O)cc4)nn3)CC2)n1.Cl (stereo partly drawn) | 14.3%
13 | O=C(OCC(=O)N1CCc2ccccc21)c1ccc([N+](=O)[O-])cc1 | 13.2%
14 | CN[C@@H]1[C@H](O)[C@H](NC)[C@H]2O[C@@]3(O)C(=O)C[C@@H](C)O[C@H]3O[C@@H]2[C@H]1O.Cl.O | 16.4%
15 | CC1Cc2ccccc2N1C(=O)CN1C(=O)COc2ccccc21 (stereo not drawn) | 9.34%
16 | CCC1CN(C(=O)NCc2ccc(C)cc2)c2cc(Cl)ccc2O1 (stereo not drawn) | 17.8%
17 | Cc1nnc(SCC(=O)N(C)c2ccccc2)n1Cc1ccccc1 | -13.2%
18 | CCOC(=O)C1CCN(Cc2ccc(-c3ccccc3)cc2)CC1 | -28.8%
19 | O=C(c1ccc(F)cc1)N1CCCC(c2nc(-c3ccncc3)no2)C1 (stereo not drawn) | -65.6%
20 | O=C(COC(=O)c1cccc(S(=O)(=O)N2CCOCC2)c1)NCCc1ccccc1 | 3.22%
21 | Cn1nc(-c2ccc(Cl)cc2)c2cc(C(=O)NCCCN3CCOCC3)sc21 | -13.1%
22 | CCCOc1ccccc1N/C(=N\S(=O)(=O)c1ccc(C)cc1)Nc1nc(C)cc(C)n1 | 26.1%
23 | N/C(=N\OCc1ccccc1)c1nonc1N | -1.49%
24 | COc1ccc(/C=N/NC(=O)c2c(Br)cnn2C)c2ccccc12 | 4.95%
25 | CCOC(=O)c1c(-c2cccc([N+](=O)[O-])c2)cn2ccccc12 | 13.3%
26 | Cc1cc(Oc2ccc(Cl)cc2)nc(-c2ccccn2)n1 | -0.301%
27 | COc1ccc(COC(=O)C2=C(C)NC(=O)NC2c2ccccc2)cc1 (stereo not drawn) | 5.54%

Row | SMILES | hERG current change (%, negative = inhibition) at 10uM
28 | Cc1nc2ccc(C(=O)OCc3nnc(-c4ccc(Br)cc4)o3)cc2nc1C | 15.6%
29 | O=C(NCc1ccc2c(c1)OCO2)C1CCC(CNc2c(N3CCCCC3)c(=O)c2=O)CC1 (stereo not drawn) | -6.5%
30 | Cc1ccc2occ(/C=N/NC(=O)c3ccccc3O)c(=O)c2c1 | 15.8%
31 | CCCOc1ccc(-c2csc3ncn(Cc4ccc(C(=O)O)cc4)c(=O)c23)cc1 | -12.5%
32 | CC1CCCN(S(=O)(=O)c2ccc(S(=O)(=O)N3CCCC3)cc2)C1 (stereo not drawn) | 24.7%
33 | Cc1ccc(C(=O)N/C(=C/C=C\c2ccccc2)C(=O)NCc2ccco2)cc1 | -27.7%
34 | CC(=O)Nc1ccc(OC(=O)Cc2ccc(Cl)cc2)cc1 | -2.26%
35 | Cc1cccc(N2CCN(C(=O)c3ccccc3NC(=O)C3=CSCCO3)CC2C)c1 (stereo not drawn) | -2.15%
36 | O=C(Nc1ccc(S(=O)(=O)N2CCOCC2)cc1)c1ccc([N+](=O)[O-])cc1Cl | -42%
37 | Brc1ccc(-c2ncc3ccccn23)cc1 | -15.9%
38 | COc1ccc(-n2ncc3c2CC(C)(C)CC3NC(=O)CN2CCOC2=O)cc1 (stereo not drawn) | -32.9%
39 | COc1cc(/C=C(/NC(=O)c2ccccc2)C(=O)N2CCOCC2)c([N+](=O)[O-])cc1OC | -3.92%
40 | CSc1ccccc1C(=O)Nc1ncc(C)s1 | 10.2%
41 | COC(=O)c1sccc1S(=O)(=O)Nc1ccc(C)cc1 | 14%
42 | O=C(NCCC1=CCCCC1)C1CCN(S(=O)(=O)c2cccc3nonc23)CC1 | 0.293%
43 | CCCCNC(=O)Cc1cc(=O)[nH]c(=O)[nH]1 | 8.74%
44 | C=C(C)CNC(=O)CCc1nnc(C2(c3ccc(Cl)cc3)CCC2)o1 | -23.9%
45 | CCC(CC)C(=O)Nc1ccc(S(=O)(=O)Nc2nccs2)cc1 | 25.9%
46 | N#CCCN(C(=O)Nc1ccc(Cl)c(Cl)c1)c1ccccc1 | -0.506%
47 | Cc1cc2c(NC(=O)Nc3ccc(F)cc3)cccc2nn1 | 8.16%
48 | Nc1ccc(N2CCN(c3ccc(F)cc3)CC2)cc1 | 1.37%
49 | COc1ccccc1CNC(=O)C1CCC(CNc2c(N3CCC(C)CC3)c(=O)c2=O)CC1 (stereo not drawn) | 6.99%
50 | CCCCN(CC)CCNC(=O)c1cc2c(-c3ccc(Cl)cc3)nn(C)c2s1 | -74.8%
51 | COc1ccc2ccccc2c1/C=N/N1C(=O)CSC1=S | 16.7%
52 | CCCCOc1ccc(/C=C(\C#N)C(=O)NC2CC2)cc1 | 1.55%
53 | Cc1cc(CNC(=O)[C@H]2C[C@@H]2[C@H](NP(=O)(c2ccccc2)c2ccccc2)c2ccccc2)nn1C | -0.941%
54 | Cc1ccc(C(=O)C2=C(O)C(=O)N(CCCN3CCOCC3)C23C(=O)N(C)c2ccccc23)o1 (stereo not drawn) | 27.9%
